Each structure is given as a SMILES string. The list shows a part of the results. These are further read-outs of the screen, such as a control signal, another cell line or another target. No call is given for them. Words in brackets tell the shape of the fitted curve; partial curves, single points and poor fits give uncertain potencies.
Tags give direction and shape of the fitted curve.

The first assay in a line: qHTS drug screen for cell cycle checkpoint inhibitors in PARPi-resistant BRCA-mutant ovarian cancer cell lines. (AID 1963452). To be noted: PEO1/OlaR viability, CellTiter-Glo luminescence, 96 h; measured here: PEO1 parental viability. Summed up: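 PEO1, PEO4 and PEO1/OlaR ovarian cancer cells, 600 per well, exposed 96 h at 37C to a dilution series. Viability read by CellTiter-Glo luminescence, normalized to DMSO and empty wells; activity summarized as Z-AUC.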
(In general: In qHTS, concentration-response curves come from the screen itself.)
As for `COC(=O)N(CC(=O)O)Cc1cccc(OCc2nc(-c3ccc(Cl)cc3)oc2C)c1`, the AC50 is 21.9 µM [falling, single point].

Consider `COc1ccc(Cl)c(Nc2nc3ccccc3nc2NS(=O)(=O)c2cccc(NC(=O)C(C)(C)N)c2)c1`, for which the half-maximal activity concentration (AC50) is 27.5 µM [falling, single point].

Turning to `COc1ccc(Cl)c(Nc2ncnc3cc(OCC4CCN(C)CC4)c(OC)cc23)c1`, the AC50 was 15.5 µM [falling, single point].

Turning to `COC1CCN(C(=O)c2cc(Cc3n[nH]c(=O)c4ccccc34)ccc2F)CC1`, the AC50 was 11 µM [falling, partial curve].

With `CCO[C@@H]1OC(=O)C[C@@H]1NC(=O)[C@@H]1CCCN2C(=O)CC[C@H](NC(=O)c3nccc4ccccc34)C(=O)N12`, the AC50 was 17.4 µM [rising, partial curve, poor fit].

`NC(=O)C1CCCc2c1[nH]c1ccc(Cl)cc21` (stereo not given): the AC50 was 0.0195 µM [rising, full curve, poor fit].

On to `CCOC(=O)[C@@]1(CCCCCCOc2ccc(Cl)cc2)CO1`, for which the AC50 is 17.4 µM [falling, single point].

In the case of `COc1ccc2c(c1)C(c1ccc(F)cc1)=C(CN1CCCC1)CO2`, the AC50 is 0.309 µM [rising, full curve, poor fit].

On to `CC(=O)C1CCC2C3CCC4=CC(=O)CCC4(C)C3CCC12C` (stereo not given), for which the AC50 is 12.3 µM [falling, partial curve].

Regarding `COc1ccc(S(=O)(=O)NCc2ccc(C(=O)NCCc3ccc(Cl)cn3)cc2)cc1`, the AC50 is 12.3 µM [falling, partial curve].

On to `COc1ccc2[nH]c(S(=O)Cc3ncc(C)c(OC)c3C)nc2n1` (stereo not given), for which the AC50 was 0.0549 µM [falling, full curve, poor fit].

For `Nc1n[n+]([O-])c2ccccc2[n+]1[O-]`, the AC50 was 24.5 µM [falling, single point].

`O=C(Nc1ccc(S(=O)(=O)N2CCOCC2)cc1)c1cc(Cl)ccc1NS(=O)(=O)c1ccc(Cl)s1`: the AC50 is 24.5 µM [falling, single point].

As to `CCc1cc2c(c(OCC(F)(F)F)c(C(=O)NC3CCN(C(=O)CO)CC3)n2C)c(=O)n1CC(=O)c1ccccc1`, the AC50 is 0.0549 µM [falling, full curve, poor fit].

Take `CC1=C(C)C(=O)C(C(CCCCCC(=O)O)c2ccccc2)=C(C)C1=O` (stereo not given): the AC50 is 0.871 µM [rising, partial curve, poor fit].

With `O=C1S/C(=C\c2ccc(OCc3cccc(B(O)O)c3)cc2)C(=O)N1Cc1ccc(F)cc1`, the AC50 was 8.71 µM [falling, partial curve, poor fit].

For `CNC(=O)c1ccc2cc(C3(O)CCn4cncc43)ccc2c1` (stereo not given), the AC50 is 1.38 µM [falling, partial curve, poor fit].

Consider `CCCC(CCC)C(=O)Nc1ccn([C@@H]2O[C@H](CO)[C@@H](O)C2(F)F)c(=O)n1`, for which the AC50 is 1.1 µM [falling, full curve].

Consider `CO[C@@H]1[C@@H](O)[C@H](O)[C@@H](n2c3c(Cl)cccc3c3c4c(c5c6cccc(Cl)c6[nH]c5c32)C(=O)NC4=O)O[C@H]1CO`, for which the AC50 is 0.049 µM [falling, full curve, poor fit].

`CC(C)Oc1ccc2c(=O)c(-c3ccccc3)coc2c1`: the AC50 was 6.16 µM [falling, partial curve, poor fit].

In the case of `CC(C)(C)c1cc(C(=O)O)c(NC(=O)Nc2ccc3[nH]ncc3c2)s1`, the AC50 is 21.9 µM [rising, single point].

Still in this assay, the particulars now being: PEO1/OlaR viability, CellTiter-Glo luminescence, 96 h; measured here: PEO4 viability.
Consider `CN[C@@H](C)C(=O)N[C@H](C(=O)N1CCC[C@H]1C(=O)Nc1snnc1-c1ccccc1)C1CCCCC1`, for which the AC50 was 6.16 µM [falling, partial curve, poor fit].

For `CC(C)(C)S(=O)(=O)c1ccc2nccc(Nc3n[nH]c4ccc(F)cc34)c2c1`, the concentration at half-maximal activity (AC50) is 15.5 µM [falling, partial curve, poor fit].

Regarding `Cc1cc(-c2cc(OC(=O)c3ccccc3)ccc2Cl)cc2nnc(Nc3ccc(OCCN4CCCC4)cc3)nc12`, the AC50 is 8.48 µM [falling, single point].

Regarding `Cc1cncc2cccc(S(=O)(=O)N3CCCN(C(=O)CN)C[C@@H]3C)c12`, the concentration at half-maximal activity (AC50) was 0.616 µM [falling, full curve].

For `CC1(C)CN(C(=O)c2ccc(-c3cccc4nc(NC(=O)C5CC5)nn34)cc2)C1`, the AC50 was 0.549 µM [rising, full curve, poor fit].

As for `C[C@@H]1CN(CC(=O)N2CC(C)(C)c3ncc(Cc4ccc(F)cc4)cc32)[C@@H](CN2CCOC[C@H]2C)CN1`, the AC50 was 2.45 µM [falling, partial curve, poor fit].

Turning to `CC(=O)OC[C@@H]1O[C@@H](n2ccc(=O)[nH]c2=O)[C@H](OC(C)=O)[C@H]1OC(C)=O`, the AC50 is 11 µM [rising, partial curve, poor fit].

In the case of `CC(C)OC(=O)C1=CN(C(=O)c2ccc(F)c(F)c2)CC(C)(C)c2c1[nH]c1ccccc21`, the AC50 is 27.5 µM [falling, single point].

`COc1c(N2CCNC(C)C2)c(F)cc2c(=O)c(C(=O)O)cn(C3CC3)c12` (stereo not given): the AC50 is 24.5 µM [falling, single point].

Take `CN1CC[C@@H](NC(=O)Nc2ccc(C#N)cc2)C[C@@H]1c1nc2ccccc2[nH]1`: the AC50 was 2.19 µM [falling, partial curve].

In the case of `CN1CCN(c2nc(C3=C(c4c[nH]c5ccccc45)C(=O)NC3=O)c3ccccc3n2)CC1`, the AC50 is 27.5 µM [falling, single point].

`Cc1c(C(=O)Nc2ccc(Oc3ccnc4[nH]cc(-c5ccccc5)c34)c(F)c2)c(=O)n(-c2ccc(F)cc2)n1C`: the AC50 was 6.16 µM [falling, partial curve, poor fit].

In the case of `Nc1ncnc2c1C(=O)N(c1ccc(C3CCC(CC(=O)O)CC3)cc1)CCO2` (stereo not given), the AC50 was 12.3 µM [rising, partial curve, poor fit].

With `Cc1ccc(NC(=O)[C@H]2CCCN(C(=O)c3c(C)cccc3F)[C@H]2c2ccc(NC3CCCC3)cc2)cc1C(F)(F)F`, the AC50 is 17.4 µM [falling, partial curve, poor fit].

Regarding `[O-][n+]1cccc(-c2nc3c(Cl)cccc3cc2[C@@H](Nc2ncnc3cccnc23)C(F)(F)F)c1`, the AC50 was 0.138 µM [falling, single point].

With `COc1ccc2c(c1)CC[C@@H]1[C@@H]2CC[C@]2(C)[C@@H](NCCCCCCN3C(=O)C=CC3=O)CC[C@@H]12`, the AC50 is 2.75 µM [rising, partial curve, poor fit].

Consider `CCOC(=O)N[C@@H]1CC[C@@H]2[C@@H](C1)C[C@H]1C(=O)O[C@H](C)[C@H]1[C@H]2/C=C/c1ccc(-c2cccc(F)c2)cn1`, for which the AC50 is 27.5 µM [falling, single point].

For `CC1(C)SCCN(S(=O)(=O)c2ccc(OCC#CCO)cc2)[C@H]1C(=O)NO`, the AC50 is 0.389 µM [falling, partial curve, poor fit].

Take `CNc1nc(Nc2cnn([C@H]3CCN(C4COC4)C[C@@H]3F)c2Cl)ncc1C(F)(F)F`: the AC50 is 27.5 µM [falling, single point].

As usually defined, the AC50 is the midpoint of the concentration-response curve, whichever way the signal moves.

(Values after PubChem BioAssay (NCATS).)
